Measurements reported in the supplement of paper PMC3334620.
The full ranking holds about 33,000 sequences; the median of “E-score (-0.5 to 0.5)” is about -0.012, and the highest 2% start at about 0.27. The list shows a part of the results.

What follows are sequences tested against T1, Vhr1 (UniProt P40522) (assay: PBM E-score (8-mer binding enrichment) (E-score (-0.5 to 0.5)); higher = stronger / more preferred TF binding; most listed sequences are background and not binding sites). Settings: protein concentration: 200 nM; construct: GST-full length.
T1 sequence: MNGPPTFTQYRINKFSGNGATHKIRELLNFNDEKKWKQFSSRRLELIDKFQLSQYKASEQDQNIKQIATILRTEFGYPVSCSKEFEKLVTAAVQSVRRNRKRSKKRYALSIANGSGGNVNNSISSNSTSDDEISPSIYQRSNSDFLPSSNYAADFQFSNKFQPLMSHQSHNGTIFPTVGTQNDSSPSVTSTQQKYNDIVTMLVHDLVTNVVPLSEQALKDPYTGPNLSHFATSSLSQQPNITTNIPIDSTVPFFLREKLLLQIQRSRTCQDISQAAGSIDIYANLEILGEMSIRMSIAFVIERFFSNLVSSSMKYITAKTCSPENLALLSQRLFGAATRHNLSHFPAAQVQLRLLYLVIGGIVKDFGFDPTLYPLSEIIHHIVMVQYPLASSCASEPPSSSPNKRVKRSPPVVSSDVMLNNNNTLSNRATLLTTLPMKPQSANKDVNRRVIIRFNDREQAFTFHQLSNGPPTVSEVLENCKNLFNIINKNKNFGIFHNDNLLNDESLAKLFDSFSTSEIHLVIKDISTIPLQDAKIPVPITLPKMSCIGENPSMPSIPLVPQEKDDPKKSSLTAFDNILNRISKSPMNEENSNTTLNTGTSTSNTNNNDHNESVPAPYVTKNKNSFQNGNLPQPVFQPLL
Experimental: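 Universal 'all 10-mer' protein binding microarrays (Agilent AMADID 015681) probed with GST-tagged S. cerevisiae TFs (full-length or DBD) made by in vitro transcription/translation (PURExpress), about 100-200 nM. Bound TF was detected with fluorescent anti-GST. Each ungapped 8-mer (which stands for itself and its reverse complement) is scored by the PBM enrichment score (E-score), a modified Wilcoxon-Mann-Whitney statistic from -0.5 to +0.5, computed with the Universal PBM Analysis Suite. Scale: above 0.35 generally sequence-specific binding.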

Sequence	PBM E-score
ACCTCGGA	0.107
GCGGCACA	0.0855
GACCCGGC	0.112
AGCATCAA	0.0321
ACGTCCGG	-0.0653
AGTTAGGC	-0.144
AACGTCAT	0.104
GTCCAACA	0.00179
CTTATGGC	-0.172
AAGACCGT	-0.235
CTAGCCGA	-0.02
GCGCCTCC	-0.0327
TAACTCCA	-0.0608
AGTCCCGA	-0.0853
CTCGCTGC	0.08
GGGCTTTA	-0.295
CACTTGTC	-0.0138
ACGCTGAA	-0.238
TACCTAAA	-0.155
GGGCGGAC	0.0707
CTGTGCGC	0.0828
GTTGAAAC	-0.0891
TGGCACAA	-0.0601
ATAACTGA	0.111
CTTCACAC	-0.063

Sequence	PBM E-score
AGGTTCAA	0.0239
ATAGTAGG	0.138
TCGTGGAA	0.211
AAGAAGCC	-0.0405
CGAGATTA	0.0687
GAGTAATA	0.162
ACATTACT	0.0527
CCATTAAC	0.135
AGACTCTC	0.0937
AGATGCGA	0.0238
CTCCGGGA	0.087
CCAAGAGA	-0.148
AGTTGAAA	-0.138
CGTTTTGA	-0.0651
CCGACAAG	-0.0285
ATATGTGA	0.206
CCCTCTCC	-0.179
CCAGTGGA	-0.118
CATCTGCG	0.0859
CCTAGCTC	-0.0792
TAATCGAA	-0.0316
GGTTTTAA	-0.0733
AGACCCTG	0.0628
AACATGCA	0.0505
CCACTGCA	0.0851

Sequence	PBM E-score
CAAGATGG	-0.0455
GGCTTGAA	-0.155
CCAACCCG	0.0536
TCGATAAA	-0.0638
CACTTTGG	-0.00024
CATCTAAG	-0.161
AGACCTAC	0.0604
AGGGGTTA	-0.066
GCCTTCAC	-0.0812
CAAATTGG	-0.0706
AAATGGGA	-0.161
GCGAAAAA	-0.0346
AGACGGCC	-0.064
CCGGTTGC	0.00903
ACACCGTG	0.0265
AATGGCGA	-0.0361
GGTGTGAA	0.151
CGTTGCAG	-0.111
ACATTAGA	-0.105
CCTAATAG	-0.176
GTGCTTTA	-0.096
CACACATG	0.245
GAGAGCGA	-0.0723
CCTTTGCC	-0.17
AATTCGTA	-0.124

Sequence	PBM E-score
AGTGGAAA	-0.12
AAGCAGAC	-0.229
ATCAACAC	0.214
CTTCATAC	0.0213
ACATCTAG	-0.0202
TCTAGACA	0.147
CCGTGCGA	0.181
CTGAAAGA	-0.175
ACCATGGC	0.119
CCATCCCG	-0.0862
AAAAGATA	-0.16
CTTATCCA	0.00295
AACTCCTG	0.00206
TATCTCAA	0.147
AACCGATA	0.135
GATTTGCA	-0.0259
GGCAATAC	0.0785
CGAGACCG	0.02
GCCTTCGA	-0.181
GATGGCGC	-0.0762
CGTGGATC	-0.004
ATAGGCAT	0.0131
CTGTCAAA	-0.0913
GTCACACA	0.303
ACTACTAT	0.325

Sequence	PBM E-score
GCGAGTCC	0.22
CTGTCGCC	0.0514
ATCGGGCC	-0.16
GAGCTCTA	-0.0777
CGCCTGGA	0.0443
AATCAACA	0.303
CTTGAGCC	-0.217
ACGTAAGA	-0.179
TAATTCAA	-0.137
GACTCGAA	0.161
ACAATTCA	-0.233
TCCTGTAA	-0.00405
ATGTATTC	0.00908
ACACCTGC	0.0726
ACCTACTG	0.0266
CTGCGAGA	-0.0679
GATCACCC	0.0378
ACTGCTGG	-0.162
CGTGCACC	-0.108
ACGAGTAA	0.163
GCTCAGTA	-0.0102
ATACAGCG	-0.0674
CTTATAAC	-0.103
AAAGTTTG	0.0115
CTACCCAC	0.0974

Sequence	PBM E-score
CTCGGCCA	0.0475
ACGTGCTC	0.0758
CAGAAGCA	-0.165
ACGGCTCA	0.193
ATACTAAC	0.208
ACGTATCG	-0.096
AGCGAGAA	-0.322
TCAACAGA	0.0252
CGCAGTGC	-0.174
CGGAATTC	-0.141
ACCGTGCC	-0.00252
CTTATTAC	-0.0243
CCCGGGCG	-0.11
ACGTACTG	0.0216
CACGTAGG	-0.143
ATTCCCTC	0.0523
AAGCGGGT	0.0277
CCTTAAGA	-0.224
GAACAGAA	-0.0693
GTAAAGTA	0.0862
CAAGTGTC	-0.0895
AACCAGAG	-0.123
CCAATGTA	-0.0965
GCACGACC	-0.0187
AGTTGGAT	0.127

Sequence	PBM E-score
CGACATAC	0.026
GCAGGATA	0.0299
AGTTACAC	0.125
GACGGCAC	-0.18
ATATAGAG	-0.0818
ACCTCCTA	-0.0455
CAGAATCG	0.00203
ATTTATAC	0.067
AATTGGCC	-0.13
GCCTTCCA	-0.281
TATCATGA	0.189
GACCCGAC	0.168
ACCTTATA	0.0589
CCAAACGG	0.00351
ACCTAGAA	-0.0713
CGTTACTC	0.0257
CCGGTTAA	-0.24
CGCAGGTA	-0.0452
AGCCGGAC	0.217
GGGGAGAA	-0.168
CGCCCCCC	-0.218
AACGATAG	-0.11
ATACGTTA	-0.112
CTAGCCCC	-0.145
ATCAGAGC	0.0322

Sequence	PBM E-score
GCACTAGA	-0.219
CCTCGTGC	-0.0709
CCTCGGAA	-0.0541
CAAGCGAC	0.0878
ACTCATAG	0.264
GCTTAGCA	-0.214
GATGAACA	-0.0578
CTTGTTTC	-0.142
ATCTTCAT	0.0461
ACCCTCTA	-0.0527
ACATGGAT	0.113
AACTGCGT	0.0502
CATCTTTA	-0.0551
AAAATTAT	-0.0112
ATAGTCCC	0.0218
ATCCGGAA	0.0341
AACGACAC	0.105
GCGCGGCA	0.122
TACCGTAA	-0.157
GCTATCGA	0.0615
AAAGGGTC	-0.103
AGGGCACG	0.00741
GTAGTCCA	-0.0646
CTCCTCAC	-0.192
CTCAATAA	-0.0777

Sequence	PBM E-score
AGTCCAAT	0.0934
TCAACACA	0.223
ATGCATCC	-0.152
GAATCCTA	-0.0164
CCTGCACA	-0.0959
ATGCATAA	-0.0382
CCCGGTAC	0.00892
CTTGGTGC	-0.00556
CATTCATA	0.267
ACCCTAAG	-0.114
TCTCTTCA	-0.283
AAAGCCTA	-0.115
CTCCCCAG	0.0578
ATGTGTTA	0.195
TAGGTGAA	0.0656
CTAGGGCA	-0.233
AGTCTCGC	0.131
AACGGCAA	-0.0038
GCGACCAA	0.062
CGCGTAAA	-0.149
GTAGGAAC	0.171
GAATACCA	0.173
AAAGGGGC	-0.186
AAGCCGGG	0.0382
TCCCTACA	-0.033

Sequence	PBM E-score
CGTTGTGA	-0.0231
CCTCTCAC	-0.175
CACAGAAA	0.0843
CCCAAGTC	-0.0572
GACTATGA	0.289
CGGCATAA	-0.0941
CTCAGGGC	0.0201
CTGCCTCC	-0.0893
TTAACCAA	0.163
GAAACGCA	0.0152
ACCTTGGC	-0.017
CAAACATG	0.0891
CTTGGTTC	0.116
ACGTCGTC	-0.0867
CACAATAC	0.17
AGCCAAAA	-0.165
AGTTCGTA	0.00672
TGCGTCCA	-0.0845
CTTCCGCA	-0.0559
ACATATCA	0.281
CTGGAAAG	-0.217
CGAGTGGC	-0.0443
CTATGGAA	-0.075
AAATTACC	8e-05
AGAGTAGC	-0.055

Sequence	PBM E-score
GAGAAAAC	-0.139
AAAAAAAT	-0.0521
TGGTAACA	-0.089
GAAAACGA	-0.222
CTCAGAGC	-0.0272
ATAACCGG	-0.157
AGACTATG	0.187
ATGAGTTC	0.00071
GTATTATA	0.254
AATATAGT	0.2
ATATGAAA	-0.0688
ATAATTGG	-0.0899
TATCAGAA	-0.199
TCCGACCA	0.117
CTGCAGTC	0.0724
CAACACTA	0.0341
AACACATT	0.201
AGTTGTCG	0.112
GAAATGGA	-0.142
ACTATGCT	0.109
AACTCGGG	0.0438
AGATGTCG	0.0632
ACCCGCGA	0.144
CATGGTCG	0.105
GGCAACCC	0.00021

Sequence	PBM E-score
AGGCGGCA	-0.101
CCTAAGAC	-0.0658
GAGCAGAA	-0.0939
CGCGCCTA	0.00714
TGAGTAAA	0.108
GGATAGGA	0.0686
ACTTGGAT	-0.0661
ACAAGGCG	0.0686
TCGCGCAA	0.0709
TTAAATAA	-0.137
CGTGGAGC	0.014
CAGGAATG	0.0121
ATCCGTAA	-0.0459
GACGCAGA	0.0137
GAGTTAAA	-0.103
GGAAGGAC	-0.0383
CATAGATG	-0.0858
GGAGAGCA	-0.131
GAGGGCGC	-0.118
ACCCACAC	0.185
GGGCGCTA	-0.224
ATCCCAAG	-0.256
CGTCCAAG	-0.217
ATCTTATC	0.0813
TGTCTAAA	-0.149

Sequence	PBM E-score
CCTGGGTC	0.15
AGTTGATG	0.0245
AAGTACAG	-0.194
ATCTGAAG	-0.111
AATCGTTC	-0.0435
AAATTGCT	-0.134
CGCAGCAA	-0.0193
AGAGGCTC	-0.191
CATTAATG	0.226
ACGGGCAG	0.146
CCACAGTA	0.144
ATTTGTTA	0.16
GAGATTAA	-0.0349
CGAGCGGA	0.0286
CAGTAATA	0.0862
CAATGCAC	0.167
GGGACTAC	0.0872
AATATGCC	-0.0384
CTTGGTAC	0.0505
CTTTTCAC	-0.234
CTGATTAA	0.191
AGACTGCT	-3e-05
AGATCTGC	-0.0821
GCGTTCCC	-0.16
AAACATCT	-0.253

Sequence	PBM E-score
GGTATCCA	0.103
GTTGGTCA	0.261
AACTAGCA	0.145
ACATCCTG	0.213
AGTAATCG	0.141
AATCTGTA	0.128
ATCACATC	0.175
GTCCTACA	0.0428
ACTTGATC	-0.0156
GGACGTTA	-0.248
AGCATAAG	0.041
AAAATCCA	-0.0618
GACTACCC	0.254
AATAGGCG	-0.117
AACTCTGT	-0.0226
CGCCTACC	-0.0591
AGACGTGC	-0.109
GCGTAAGA	-0.183
AGCCTGTA	-0.0156
